PMC4336329 (PLoS ONE, 2015)
Hit rate of the full screen: of about 310,000 compounds, about 2,200 (0.71%) showed an effect of 50% or more. The effect is printed as a negative number. The list shows a part of the results.

Molecular target: human ether-à-go-go-related gene (hERG) potassium channel (human, UniProt Q12809)
Assay: primary screen, population patch clamp on CHO cells stably expressing hERG

Sequence of human ether-à-go-go-related gene (hERG) potassium channel (Q12809 whole entry, looked up): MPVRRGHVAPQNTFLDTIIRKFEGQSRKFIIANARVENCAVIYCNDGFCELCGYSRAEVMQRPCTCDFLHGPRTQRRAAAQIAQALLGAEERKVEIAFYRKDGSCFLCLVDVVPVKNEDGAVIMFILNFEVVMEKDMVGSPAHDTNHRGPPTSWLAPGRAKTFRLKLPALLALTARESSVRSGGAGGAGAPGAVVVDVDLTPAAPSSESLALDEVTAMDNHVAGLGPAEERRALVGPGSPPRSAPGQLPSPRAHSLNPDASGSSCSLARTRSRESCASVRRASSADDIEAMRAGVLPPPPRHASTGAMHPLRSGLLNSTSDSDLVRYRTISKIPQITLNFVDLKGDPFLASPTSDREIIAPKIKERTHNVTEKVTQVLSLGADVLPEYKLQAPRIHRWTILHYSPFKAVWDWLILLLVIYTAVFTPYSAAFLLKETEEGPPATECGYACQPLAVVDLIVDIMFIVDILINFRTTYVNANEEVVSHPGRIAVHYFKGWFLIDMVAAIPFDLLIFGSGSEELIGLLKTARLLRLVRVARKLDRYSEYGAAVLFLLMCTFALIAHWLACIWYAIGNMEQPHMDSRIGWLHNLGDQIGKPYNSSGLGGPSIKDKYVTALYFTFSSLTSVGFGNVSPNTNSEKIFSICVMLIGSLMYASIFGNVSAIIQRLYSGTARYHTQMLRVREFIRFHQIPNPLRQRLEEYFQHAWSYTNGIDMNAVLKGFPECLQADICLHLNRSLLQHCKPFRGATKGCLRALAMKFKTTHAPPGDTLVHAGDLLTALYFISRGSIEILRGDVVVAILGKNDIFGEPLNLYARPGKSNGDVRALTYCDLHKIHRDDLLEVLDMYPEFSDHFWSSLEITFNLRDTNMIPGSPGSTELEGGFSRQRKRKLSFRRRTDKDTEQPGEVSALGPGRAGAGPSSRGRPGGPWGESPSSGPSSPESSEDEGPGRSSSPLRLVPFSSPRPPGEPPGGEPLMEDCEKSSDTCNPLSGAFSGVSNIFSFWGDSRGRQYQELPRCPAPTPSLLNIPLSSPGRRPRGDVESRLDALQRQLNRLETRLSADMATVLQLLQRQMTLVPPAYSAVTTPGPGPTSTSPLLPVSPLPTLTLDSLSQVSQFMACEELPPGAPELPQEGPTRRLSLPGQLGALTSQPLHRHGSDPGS

SMILES	hERG current change (%, negative = inhibition) at 1uM
CCCC(=O)c1c(O)[nH]c(=O)[nH]c1=O	11.3%
Cc1cccc(C(=O)Oc2ccc(/C=N/NC(=O)c3cc(O)cc(O)c3)cc2)c1	20.7%
CCOC(=O)N1CCC(N2C(=O)c3ccccc3C2Nc2ccccc2)CC1 (centres unmarked)	6.14%
CSc1sc(C(=O)NNC(C)=O)c2c1C1(CCC2)SCCS1	7.14%
CC(C)Oc1ccc(/C=C/C(=O)NCC2COc3ccccc3O2)cc1 (centres unmarked)	12.2%
CC(=O)Nc1ccc(Sc2ncccc2C(=O)Nc2ccc(F)cc2)cn1	15.5%
O=C(c1ccccc1Br)N1CCC(c2nc3ccccc3s2)CC1	-1.62%
COc1cc(C2OC(=O)C3C(c4ccc(OC(C)=O)c(OC)c4)OC(=O)C23)ccc1OC(C)=O (centres unmarked)	12.4%
CCCCN1C(=O)CN(CCc2ccccc2)C(=O)C1c1ccc(OC)cc1 (centres unmarked)	10.3%
CCCCN1C(=O)C(O)(CC(=O)c2ccccn2)c2ccccc21 (centres unmarked)	13.7%
CN(CC1COCCO1)c1nc2nonc2nc1N1CCSCC1 (centres unmarked)	7.08%
COCOc1ccc(/C=C2/Oc3cc(OCOC)cc(OCOC)c3C2=O)c(OCOC)c1	15.2%
COc1ccccc1N1CC(C(=O)Nc2ccc(S(=O)(=O)N3CCOCC3)cc2)CC1=O (centres unmarked)	9.13%
Cc1cc(C)nc(N(C#N)CC(=O)N2CCC(C(N)=O)CC2)n1	15.2%
Cn1cnnc1SCC(=O)Nc1ccc2ccccc2c1	7.13%
CC1(C)CC(=O)C2=C(C1)OC(N)=C(C#N)C2c1cccs1 (centres unmarked)	12%
Cc1ccc(C)c(Cn2nnc3c(=O)[nH]c(C(=O)NCc4ccco4)nc32)c1	2.49%
CC(C)c1ccc(/C=C/C(=O)NC2CCCCC2)cc1	10.9%
COc1cccc(NS(=O)(=O)c2cn(C)c(=O)n(C)c2=O)c1	13.4%
O=C(NC(=S)Nc1ccc(S(=O)(=O)N2CCCCC2)cc1)c1ccccc1	3.31%
Cc1ccc(C)c(OCc2cc(C(=O)N3CCC(N4CCCC(O)C4)CC3)no2)c1 (centres unmarked)	-2.1%
CCOC(=O)C1=C(C)NC(C)=C(C(=O)OCC)C1C(=O)OCC(=O)N(CC)C1CCS(=O)(=O)C1 (centres unmarked)	-5.58%

SMILES	hERG current change (%, negative = inhibition) at 1uM
CN1CCN(CC(O)COc2ccc(OCC(O)CN3CCN(C)CC3)cc2)CC1 (centres unmarked)	10.2%
COc1ccc(-c2csc(N(CC3CCCO3)C(=O)c3ccccc3)n2)cc1 (centres unmarked)	-0.515%
COCCn1c(SCC(=O)N2CCCC2)nnc1C(C)C	11.9%
COC(=O)c1[nH]c2cccc(C)c2c1NC(=O)CN1CCN(c2ccccc2OC)CC1	8.2%
CC(C)C(=O)Nc1c(-c2ccc(Cl)cc2)c(=O)c2ccccc2n1C	13.8%
COc1ccccc1CNC(=O)c1cn(C)c2ccc(S(=O)(=O)N3CCCC3)cc2c1=O	-4.16%
CCC(C)(C)n1nnnc1C(c1cc2cccc(C)c2[nH]c1=O)N1CCCC1 (centres unmarked)	12.3%
CCc1sc(C(=O)Nc2ccsc2C(=O)OC)cc1Br	-10%
C=CCNC(=S)N1CCN(c2ncc(C(F)(F)F)cc2Cl)CC1	-2.4%
O=C1N/C(=N/S(=O)(=O)c2ccccc2)S/C1=C/c1cccnc1	2.05%
COc1ccccc1OCC(=O)OCC(=O)NCCN1C(=O)CSC1=O	1.45%
O=C(NC1CCCCCC1)C(=S)NC1CCCCC1	7.2%
CCCCN(CC)C(=O)Cn1c(=O)sc2ccccc21	1.04%
COc1ccc(CCNC(=O)c2ccc(-c3cccc([N+](=O)[O-])c3)o2)cc1OC	5.08%
COc1cc2c(cc1OC)C(c1ccccc1C)CC(=O)N2 (centres unmarked)	10.2%
CC(C)(C)OC(=O)N1CC=C2C(C#N)=C(N)C(C#N)(C#N)[C@H](c3cccnc3)[C@H]2C1	8.09%
O=C(Nc1cccc(-c2nnc(-c3ccccc3)o2)c1)C1CCCO1 (centres unmarked)	-2.42%
COCC(=O)Nc1ccc([N+](=O)[O-])cc1C	9.23%
CCc1cccc2c(C(=O)COC(=O)C3=NNC(=O)CC3)c[nH]c12	-13.2%
COC(=O)c1ccc2nc(NC(=O)C3CC3)sc2c1	15.4%
Cc1ccc(C)c(N=C2NC(=O)CS2)c1	15.7%
COc1ccc(S(=O)(=O)Nc2ccc(F)cc2)c(C)c1C	7.15%
